Test results published in the supplement of paper PMC6746778.
Where a name gives a salt, the structure may show the parent alone. This is one part of the list. Many values rest on one well or one pass, so single values are uncertain.

Experiments:
Experiment in all cases: proliferation Z-score within cell line (SRB, relative to all inhibitors screened on that line); triple-negative breast cancer lines and a kinase inhibitor library; SRB is the sulforhodamine B protein stain; higher = less growth inhibition (more resistant)
Conditions in all cases: concentration: 1 µM; 4 days
Bt20 = tested on: Bt20
Bt549 = tested on: Bt549
HCC1143 = tested on: HCC1143
HCC1806 = tested on: HCC1806
HCC1937 = tested on: HCC1937
HCC38 = tested on: HCC38
HCC70 = tested on: HCC70
Hs578T = tested on: Hs578T
MDA-MB-231 = tested on: MDA-MB-231
MDA-MB-435s = tested on: MDA-MB-435s
MDA-MB-436 = tested on: MDA-MB-436
MDA-MB-453 = tested on: MDA-MB-453
MDA-MB-468 = tested on: MDA-MB-468
SKBR7 = tested on: SKBR7
SUM1315MO2 = tested on: SUM1315MO2
SUM149PT = tested on: SUM149PT
SUM159PT = tested on: SUM159PT
SUM185PE = tested on: SUM185PE
SUM229PE = tested on: SUM229PE
SUM52PE = tested on: SUM52PE
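Further: Single-dose primary screen of a 378-member kinase inhibitor library in 96-well plates, with growth read as absorbance of protein-bound SRB dye after TCA fixation.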

Row | Structure (SMILES) | proliferation Z-score within cell line (Bt20) | proliferation Z-score within cell line (Bt549) | proliferation Z-score within cell line (HCC1143) | proliferation Z-score within cell line (HCC1806) | proliferation Z-score within cell line (HCC1937) | proliferation Z-score within cell line (HCC38) | proliferation Z-score within cell line (HCC70) | proliferation Z-score within cell line (Hs578T) | proliferation Z-score within cell line (MDA-MB-231) | proliferation Z-score within cell line (MDA-MB-435s) | proliferation Z-score within cell line (MDA-MB-436) | proliferation Z-score within cell line (MDA-MB-453) | proliferation Z-score within cell line (MDA-MB-468) | proliferation Z-score within cell line (SKBR7) | proliferation Z-score within cell line (SUM1315MO2) | proliferation Z-score within cell line (SUM149PT) | proliferation Z-score within cell line (SUM159PT) | proliferation Z-score within cell line (SUM185PE) | proliferation Z-score within cell line (SUM229PE) | proliferation Z-score within cell line (SUM52PE)
1 | CCN1CCN(Cc2ccc(-c3cc4c(N[C@H](C)c5ccccc5)ncnc4[nH]3)cc2)CC1 | -0.293 | 0.691 | -0.0645 | -1.52 | -0.805 | 0.18 | 0.413 | 0.528 | 0.642 | 0.707 | 0.699 | -0.00228 | -0.8 | 0.712 | -0.0951 | -0.178 | 0.579 | 1.3 | -0.168 | 0.695
2 | O=C1c2ccc(Nc3ccc(F)cc3F)cc2CCc2ccc(OC[C@H](O)CO)cc21 [Skepinone-L] | 0.547 | 0.538 | 0.652 | 0.732 | 0.754 | 0.55 | 0.544 | 0.566 | 0.547 | 0.781 | 0.264 | 0.773 | 0.537 | 0.462 | 0.208 | 0.527 | 0.341 | 0.374 | 0.655 | 0.441
3 | Cc1cc(C)nc(NS(=O)(=O)c2ccc(NC(=S)NC(=O)COc3ccc(Br)cc3Cl)cc2)n1 | -0.137 | 0.349 | 0.382 | 0.934 | 0.205 | 0.44 | 0.302 | 0.176 | 0.505 | 0.434 | 0.076 | 0.513 | 0.516 | -0.3 | -0.0157 | 0.224 | 0.136 | -0.286 | -0.353 | -0.298
4 | C[C@@]1(C(=O)Nc2ccc(F)nc2)CCCN1c1nc(Nc2cc(C3CC3)n[nH]2)c2cccn2n1 | -2.01 | -0.269 | 0.317 | -0.663 | 0.602 | -0.924 | 0.865 | -0.521 | -1.2 | -1.59 | 0.839 | -0.6 | -1.63 | -1.96 | -1.01 | -1.57 | 0.593 | -0.684 | -1.18 | -1.16
5 | N#CC(=C(/N)Sc1ccccc1N)/C(C#N)=C(\N)Sc1ccccc1N | 0.874 | 0.703 | -1.04 | 0.713 | 0.486 | 0.417 | 0.00419 | 0.502 | 0.545 | 0.507 | -0.0725 | 0.407 | 0.462 | 1.6 | 0.572 | 0.796 | 0.404 | 0.0111 | 0.387 | 0.931
6 | O=C(c1ccc(Nc2nccc(-c3cc4ccccc4s3)n2)cc1)N1CCC(N2CCCC2)CC1 [IKK-16 (IKK Inhibitor VII)] | 0.762 | 0.439 | 0.482 | 0.224 | 0.35 | 0.498 | 0.539 | 0.486 | 0.226 | 0.431 | 0.566 | 0.774 | 0.264 | 0.349 | 0.656 | 0.557 | 0.372 | 0.548 | 0.797 | 0.587
7 | O=C(Nc1cccc(Cl)c1)Nc1ncc(CCNc2ncnc3ccsc23)s1 [SNS-314 Mesylate] | -1.01 | -0.173 | 0.558 | 0.398 | 0.461 | -0.431 | 0.617 | -0.321 | -1.04 | -0.185 | -0.41 | -0.617 | -1.89 | -0.48 | 0.845 | 0.225 | 0.0614 | 1.06 | 0.202 | -0.281
8 | NC(=O)Nc1cc(-c2cccc(F)c2)sc1C(=O)N[C@H]1CCCNC1 | -1.87 | -2.67 | 0.502 | -2.28 | 0.143 | -2.67 | 0.246 | -2.58 | -1.97 | -2.06 | -0.434 | -1.7 | -1.37 | -1.49 | -1.86 | -2.54 | 0.339 | -0.717 | -2.5 | -1.39
9 | CN1CC[C@H](c2c(O)cc(O)c3c(=O)cc(-c4ccccc4Cl)oc23)[C@H](O)C1 [Flavopiridol HCl] | -1.99 | -2.05 | -2.21 | -1.97 | -2.29 | -2.47 | -1.92 | -2.13 | -1.58 | -1.78 | -1.95 | -1.45 | -1.57 | -1.94 | -2.2 | -1.96 | -2.31 | -1.08 | -1.81 | -1.18
10 | N#Cc1c(O)c2c(-c3ccc(-c4ccccc4O)cc3)csc2[nH]c1=O | 0.863 | 0.86 | 0.943 | 0.945 | 0.833 | 0.633 | 0.796 | 0.772 | 0.981 | 1.02 | 1.18 | 1.15 | 1.05 | 0.92 | 1.3 | 1.11 | 0.588 | 1.11 | 1.03 | 1.21
11 | Cc1cc(Nc2ncc(Cl)c(Nc3ccccc3S(=O)(=O)C(C)C)n2)c(OC(C)C)cc1C1CCNCC1 | 0.592 | 0.613 | 0.334 | 0.186 | 0.471 | 0.435 | 0.442 | 0.418 | 0.201 | -0.254 | 0.597 | 0.837 | 0.792 | 0.6 | 1.23 | 0.518 | 0.508 | 1.36 | 0.334 | 1.2
12 | Cc1ccccc1CN1C2=NCCN2C(=O)C2=C1CCN(Cc1ccccc1)C2 | 0.191 | 0.741 | 0.509 | 0.585 | 0.489 | 0.46 | 0.462 | 0.527 | 0.386 | 0.632 | 0.324 | 0.81 | 0.556 | 0.0606 | 0.183 | 0.544 | 0.418 | 0.0384 | 0.273 | 0.19
